# Laboratory results from PubChem BioAssay AID1346428 (National Center for Advancing Translational Sciences (NCATS), 2018).
# The campaign covered roughly 48,000 compounds. About 1,200 (2.5%) were called active. Roughly 2% stayed inconclusive and do not appear here.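 The calls were made as follows: active = activation of at least 60% and not above a set upper limit (about 1 call in 100 departs from these limits); inconclusive = activation of 40% to 60%, or above that upper limit; inactive = activation under 40%.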 Some of the results follow.
# Molecular target: Probable G-protein coupled receptor 32 (Homo sapiens) (UniProt O75388)
# Test: qHTS for Agonists of Human Resolvin D1 Receptor DRV1; also: 0% is about no effect
# Settings: CHO-K1 GPR32 beta-arrestin PathHunter luminescence, 90 min; at 76.9 µM; hits give high values; zero percent set by DMSO-only wells
# Outline: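 Using DMSO wells as EC0, agonist-induced signal was taken as chemiluminescence from beta-Gal reconstituted upon beta-arrestin recruitment to GPR32 in CHO-K1 cells after 90 min compound treatment.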
# Sequence of UniProt O75388 (O75388 whole entry, looked up): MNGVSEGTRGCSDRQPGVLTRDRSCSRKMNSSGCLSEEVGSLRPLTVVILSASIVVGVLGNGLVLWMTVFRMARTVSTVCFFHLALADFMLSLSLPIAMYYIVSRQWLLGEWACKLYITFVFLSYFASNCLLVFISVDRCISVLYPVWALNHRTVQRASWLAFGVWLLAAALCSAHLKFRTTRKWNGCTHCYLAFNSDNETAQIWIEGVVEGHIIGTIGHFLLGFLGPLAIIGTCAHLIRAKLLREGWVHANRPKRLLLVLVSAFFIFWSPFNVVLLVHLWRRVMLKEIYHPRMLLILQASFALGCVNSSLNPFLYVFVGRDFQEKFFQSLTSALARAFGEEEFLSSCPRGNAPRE
row,Compound,activation
1,COc1ccc(C(=O)N2CCN(C(=O)COc3ccc(Br)cc3)CC2)cc1OC,inactive: 7.25%
2,CC1CN(C(=O)N2CCC(C(=O)NCCC3=CCCCC3)CC2)c2ccccc2O1 (centres undefined),inactive: -9.03%
3,COc1cc2c(=O)c(S(=O)(=O)c3ccc(C)cc3)cn(Cc3cccc(C)c3)c2cc1OC,inactive: -2.61%
4,CCCCNC(=O)C1CCCN(c2nnc(C)c3c(C)n(-c4ccc(Cl)cc4)nc23)C1 (centres undefined),inactive: 0.781%
5,O=C(CSc1nnc(-c2cccs2)o1)Oc1ccc(Cl)cc1,inactive: 5.87%
6,COc1cc([C@@H]2c3cc4c(cc3[C@H](O)C3COC(=O)[C@@H]32)OCO4)cc(OC)c1OC (some centres undefined),inactive: -7.02%
7,CSc1cccc(NC(=O)C2CCN(S(=O)(=O)c3ccc4[nH]c(=O)ccc4c3)CC2)c1,inactive: 26.1%
8,CC(C)c1ccc(S(=O)(=O)Nc2ccc(O)c(Sc3nc4ccccc4s3)c2)cc1,active: 70.6%
9,CC(=O)c1ccc(NC(=O)CSc2nccn2Cc2ccco2)cc1,inactive: -16.1%
10,CCN(CC)CCN(C(=O)c1ccc(C(=O)OC)cc1)c1nc2ccc(Cl)cc2s1,inactive: 15.9%
11,CCOC(=O)C1(C)C=C(Nc2ccc(C)cc2)C(=O)N1c1ccccc1 (centres undefined),inactive: -2.68%
12,COc1cc(Cl)c(C)cc1NC(=O)c1cnn(-c2ccc(C)cc2)c1-n1cccc1,inactive: -6.48%
13,c1coc(-c2nc3ccccn3c2Nc2ccc3c(c2)OCCO3)c1,inactive: 2.25%
14,CCOc1ccc(NC(=O)CCS(=O)(=O)c2ccc3nc(C)sc3c2)cc1,inactive: -11.4%
15,Cc1nc(-c2ccc(C)c(N3CCN(C(=O)Nc4ccc(Br)cc4)CC3)c2)no1,inactive: -0.389%
16,CCn1cc(S(=O)(=O)c2cccc(C)c2)c(=O)c2cc(F)c(N3CCCCC3C)cc21 (centres undefined),inactive: 0.457%
17,COc1ccc(-n2c(=O)c3sc4ccccc4c3n(CC(=O)N3CCCC3)c2=O)cc1,inactive: -8.99%
18,Cc1ccc(Cn2c(SCc3ccc(C(=O)NCCc4ccccc4)cc3)nc3ccncc32)cc1,inactive: -21.3%
19,COc1ccc(-c2cn3c(n2)sc2cc(C(=O)Nc4ccccc4F)ccc23)cc1,inactive: -5.15%
20,COc1ccc(-n2c(SCC(=O)N3CCCc4ccccc43)nc3c([nH]c4ccccc43)c2=O)cc1,inactive: 34.6%
21,CN(C)CCNC(=O)c1ccc2nc(CCc3ccccc3)oc2c1,inactive: 10.3%

row,Compound,activation
1,CCc1ccc2occ(CC(=O)Nc3c(C(=O)Nc4ccc(Cl)cc4)oc4ccccc34)c2c1,inactive: -2.73%
2,Cc1cc(-c2ccc(C)c(S(=O)(=O)N(Cc3cccs3)C(C)C)c2)on1,inactive: -14.9%
3,COc1ccc(NC(=O)/C(C#N)=C/c2ccc(C)o2)cc1,inactive: 12%
4,CC(C)(C)OC(=O)N1CCC(c2c(C(=O)Nc3ccc4c(c3)OCO4)cnn2-c2ccc(F)cc2F)CC1,inactive: -22.5%
5,Cc1ccc(CNC(=O)C(=O)NCC(c2cccs2)S(=O)(=O)c2cccs2)cc1 (centres undefined),inactive: -12.1%
6,CC1CCCN(c2ncnc3c2nc2n3CCCCC2)C1 (centres undefined),inactive: 20.8%
7,CN(C)c1ccc(CNc2nc(-c3ccco3)nn2S(C)(=O)=O)cc1,inactive: -15.1%
8,O=C(O)CCCC(=O)N1CCc2cc(S(=O)(=O)NCc3ccccc3)ccc21,inactive: 5.51%
9,CCOC(=O)c1[nH]c2c(c1Cc1ccccc1)C(=O)CC(c1ccc(OC)cc1)C2 (centres undefined),inactive: -8.64%
10,Cc1cccc(NC(=O)CCNS(=O)(=O)c2ccc3c(c2)CCCC(=O)N3)c1C,inactive: 9.61%
11,Cc1ccccc1Cn1c(=O)n(CCCCC(=O)NCCc2ccccc2)c(=O)c2ccccc21,inactive: 13.8%
12,CCc1ccc(NC(=O)CSC2=Nc3ccccc3C3=NC(CC(=O)NCc4ccc5c(c4)OCO5)C(=O)N23)cc1 (centres undefined),inactive: -12.2%
13,CN(C)c1ccc(NC(=O)Cn2c(SCc3ccc(F)cc3)nc3cccnc32)cc1,inactive: -15.4%
14,CCCCCC[C@@H](CCC)C(=O)O,inactive: -4.98%
15,CCc1ccccc1NC(=O)CC(C)n1nc(C)cc1C (centres undefined),inactive: -0.387%
16,CCOC(=O)c1c(S(=O)(=O)N2CCN(c3ccccc3OC)CC2)c(C)n(C)c1C,inactive: -2.39%
17,Cc1ccc(N2C(=O)c3n[nH]c(C)c3C2c2ccc(C(C)C)cc2)cc1 (centres undefined),inactive: 22.3%
18,COc1cccc(C(=O)Nc2ccccc2-c2nc(-c3ccc(C)cc3)no2)c1,inactive: 2.33%
19,c1ccc(N2CCN(c3ncnc4[nH]ncc34)CC2)cc1,inactive: 45.9%
20,COc1cc(OC)c(NC(=O)NCc2ccc3c(c2)CCN3C(C)=O)cc1Cl,inactive: -13.2%
21,O=c1c2cc3c(cc2n(Cc2cccc(F)c2)c(=O)n1Cc1nc(-c2ccccc2)no1)OCO3,inactive: -9.78%

row,Compound,activation
1,CCCCC(CC)CN1CN(CC(CC)CCCC)CC(C)(N)C1 (centres undefined),inactive: 5.74%
2,COc1cc2c(cc1OC)C(=O)C(CC1CCN(Cc3ccccc3)CC1)C2 (centres undefined),inactive: 3.93%
3,CCc1ccc(NCc2cc3ccc(OC)cc3n(CC(=O)Nc3cccc(Cl)c3C)c2=O)cc1,inactive: -21.5%
4,COc1ccc(S(=O)(=O)N(CCc2ccccc2)CC(=O)NCc2ccccc2)cc1OC,inactive: 13.3%
5,COCCN1C(=O)c2[nH]nc(-c3c(C)cc(C)cc3O)c2C1c1cccc(O)c1 (centres undefined),active: 85%
6,Cc1ccc(Cl)cc1NC(=O)c1cccc(NC(=O)N2CCSc3ncccc32)c1,inactive: 4.96%
7,CCOc1ccc(NC(=O)C2CCCN(c3nnc(-n4c(C)ccc4C)s3)C2)cc1 (centres undefined),inactive: -16.3%
8,CC(C)(C)OC(=O)N1CCC(c2c(C(=O)N3CCN(C(=O)c4ccco4)CC3)cnn2-c2ccc(Cl)cc2)CC1,inactive: -2.57%
9,CCCNS(=O)(=O)c1cc(-c2nnc3c4ccccc4c(C)nn23)ccc1OC,inactive: -29%
10,CCc1ccccc1N1C(=O)N(Cc2cccc(Cl)c2)c2ccccc2S1(=O)=O,inactive: -7.24%
11,CC(=O)c1ccc(NC(=O)C2CCC(CNS(=O)(=O)c3cccc4nsnc34)CC2)cc1 (centres undefined),inactive: 21.3%
12,Cc1cccn2c(=O)c(C(=O)NCCc3ccc(Cl)cc3)cnc12,inactive: -7.56%
13,NC(N)=NCc1cccc(I)c1,inactive: 4.27%
14,Cc1ccc(C(=O)NCc2nnnn2-c2ccc(C)c(C)c2)cc1,inactive: -8.2%
15,Cc1ccc(-c2nnc(Nc3ccc(Br)cc3)c3ccccc23)cc1S(=O)(=O)NCc1nc2ccccc2[nH]1,inactive: -20.4%
16,COCCNc1cc(N2CCN(C3CCCCC3)CC2)c2noc3c2c1C(=O)c1ccccc1-3,inactive: -11.9%
17,CCOc1ccccc1NC(=O)c1ccc2c(c1)CCCN2S(C)(=O)=O,inactive: 4.04%
18,O=C(Nc1ccc2nn(-c3ccc(F)cc3)nc2c1)c1cccc2c(Cl)cccc12,inactive: 28.8%
19,O=C(C1COc2ccccc2O1)N(Cc1cccnc1)c1nc2c(F)cc(F)cc2s1 (centres undefined),inactive: -4.62%
20,Cc1ccc(C(=O)Nc2nnc(SCc3cc(=O)c4c(C)ccc(C)c4[nH]3)s2)cc1,active: 70.6%
21,Cc1ccc(Cl)cc1N1CCN(C(=O)c2c(C)oc3ncnc(N4CCOCC4)c23)CC1,inactive: -5.07%

row,Compound,activation
1,COc1cccc(C(=O)N2CCC(N3CCN(Cc4ccc(F)cc4)C(=O)C3=O)CC2)c1,inactive: -6.7%
2,CCOc1ccccc1NC(=O)c1c(NCc2ccc(OC)c(OC)c2OC)sc2c1CCC(C)C2 (centres undefined),inactive: 20.9%
3,CCc1nnc(SCc2nc(-c3ccccc3F)oc2C)c2cc3sccc3n12,inactive: -8.02%
4,Cc1cc(C)cc(OCC(=O)Nc2ccc(-c3nc4ncccc4o3)cc2C)c1,inactive: -6.11%
5,COC(=O)c1cccc(Nc2c(-c3cc(Br)ccc3O)nc3nc[nH]n23)c1,inactive: -44.5%
6,Cc1ccc(OCC(=O)Nc2cccc(C(=O)OCc3cc(=O)n4cc(C)sc4n3)c2)cc1,inactive: -20.2%
7,Cc1cccc(-c2noc(-c3ccc(NC4CCCC4)c([N+](=O)[O-])c3)n2)c1,inactive: 7.98%
8,COc1ccc(NC(=O)CSc2nnc(-c3nnn(-c4ccc(F)cc4)c3C)o2)cc1,inactive: -1.65%
9,COc1cc(OC)c(NC(=O)c2nc(-c3ccncc3)no2)cc1Cl,inactive: -13%
10,CCCCCNC(=O)C1CCC(Cn2c(=O)c3sccc3n(CC(=O)N3CCCC3)c2=O)CC1 (centres undefined),inactive: -4.74%
11,O=C(CC1N=C2c3ccccc3N=C(SCc3cccc(Cl)c3)N2C1=O)NC1CCCCC1 (centres undefined),inactive: -30.8%
12,CCOCN(C(=O)Cn1c(C)nc2ccccc21)c1c(C)cccc1CC,inactive: -11.1%
13,Cn1c(=NC(=O)c2ccc(F)cc2)sc2cc(Br)ccc21,inactive: -1.65%
14,Cc1cc2n(n1)CCCN2C(=O)Nc1ccccc1F,inactive: -0.484%
15,Cc1ccc(Cl)cc1-n1c(=O)cc(N2CCN(c3ccccc3)CC2)[nH]c1=O,inactive: -10.9%
16,CCc1ccc(NC(=O)c2ccc(F)c(S(=O)(=O)N(C)C3CCCCC3)c2)cc1,inactive: -10.2%
17,CCc1ccc(NC(=O)CSc2nccn2-c2cccc(C)c2C)cc1,inactive: -19.1%
18,O=c1cc(-c2ccc(F)cc2)nc(SCc2nc(-c3cccc(Cl)c3)no2)[nH]1,inactive: -6.39%
19,Cc1cc(NC(=O)CSc2nc3c([nH]c4ccccc43)c(=O)n2-c2ccccc2)no1,inactive: -46.3%
20,O=C(C1CCCN(S(=O)(=O)c2ccc(Br)s2)C1)N1CCN(c2ccc(F)cc2)CC1 (centres undefined),inactive: -18.3%
21,COc1ccc(NC(=O)CSc2nc3ccncc3[nH]2)c(OC)c1,inactive: -2.49%
